Measured values published in the supplement of paper PMC6089552.
Screen size: about 3,200 compounds; about 300 (9.4%) showed activity. Only a part is listed here, and it is no random draw.

System: A673/TR/shEF
Experiment: cell viability (LOESS-normalised, relative to median of negative controls) (log2 ratio); higher = more viable cells (less compound effect), active = hit call of the paper (over 3 MAD below the median)
Details: treatment time: 72 h
Procedure, shortened: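 A673/TR/shEF Ewing sarcoma cells were plated at 1,500 per well in 384-well plates and cultured with or without doxycycline, added 24 h before compounds, to induce EWS-FLI1 shRNA knockdown. Library compounds at two or more concentrations, alongside DMSO controls, were applied for three days. Cell viability was measured by CellTiter-Glo luminescence on an Envision reader. Readings were LOESS-corrected per plate, divided by the median of negative controls and log2-transformed, and hits were wells lying at least three median absolute deviations from the median of all screened wells.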

[1] = 0.103 µM, library screen: screen3, EWS-FLI1 expression: high (no doxycycline)
[2] = 0.103 µM, library screen: screen3, EWS-FLI1 expression: low (doxycycline-induced shRNA knockdown)
[3] = 0.308 µM, library screen: screen3, EWS-FLI1 expression: high (no doxycycline)
[4] = 0.308 µM, library screen: screen3, EWS-FLI1 expression: low (doxycycline-induced shRNA knockdown)
[5] = 0.926 µM, library screen: screen3, EWS-FLI1 expression: high (no doxycycline)
[6] = 0.926 µM, library screen: screen3, EWS-FLI1 expression: low (doxycycline-induced shRNA knockdown)
[7] = 2.8 µM, library screen: screen3, EWS-FLI1 expression: high (no doxycycline)
[8] = 2.8 µM, library screen: screen3, EWS-FLI1 expression: low (doxycycline-induced shRNA knockdown)
[9] = 8.3 µM, library screen: screen3, EWS-FLI1 expression: high (no doxycycline)
[10] = 8.3 µM, library screen: screen3, EWS-FLI1 expression: low (doxycycline-induced shRNA knockdown)
[11] = 25 µM, library screen: screen3, EWS-FLI1 expression: high (no doxycycline)
[12] = 25 µM, library screen: screen3, EWS-FLI1 expression: low (doxycycline-induced shRNA knockdown)
[13] = 0.25 µM, library screen: screen1, EWS-FLI1 expression: high (no doxycycline)
[14] = 0.25 µM, library screen: screen1, EWS-FLI1 expression: low (doxycycline-induced shRNA knockdown)
[15] = 2.5 µM, library screen: screen1, EWS-FLI1 expression: high (no doxycycline)
[16] = 2.5 µM, library screen: screen1, EWS-FLI1 expression: low (doxycycline-induced shRNA knockdown)
[17] = 0.25 µM, library screen: screen2, EWS-FLI1 expression: high (no doxycycline)
[18] = 0.25 µM, library screen: screen2, EWS-FLI1 expression: low (doxycycline-induced shRNA knockdown)
[19] = 2.5 µM, library screen: screen2, EWS-FLI1 expression: high (no doxycycline)
[20] = 2.5 µM, library screen: screen2, EWS-FLI1 expression: low (doxycycline-induced shRNA knockdown)

Measured: cell viability (log2)

Cc1nc(Nc2ncc(C(=O)Nc3c(C)cccc3Cl)s2)cc(N2CCN(CCO)CC2)n1
active: [5] -0.395 | [6] -0.907 | [7] -0.393 | [8] -1.27 | [9] -0.457 | [10] -1.34 | [11] -0.706 | [12] -1.33
inactive: [1] -0.00181 | [2] -0.0394 | [3] -0.125 | [4] -0.364

CCN(CCO)CCCC(C)Nc1ccnc2cc(Cl)ccc12 (stereo not given)
inactive: [13] 0.00358 | [14] 0.138 | [15] 0.146 | [16] 0.0473

CC(C)c1ccc2c(c1)c(SC(C)(C)C)c(CC(C)(C)C(=O)O)n2Cc1ccc(Cl)cc1
inactive: [17] 0.108 | [18] 0.0402 | [19] 0.11 | [20] 0.113

COc1cc(O)c2c(=O)cc(-c3ccc(O)cc3)oc2c1
inactive: [13] 0.0387 | [14] 0.0715 | [15] 0.112 | [16] 0.0435

C[C@@H](O)[C@H]1C(=O)N2C(C(=O)[O-])=C(SC3Cn4cnc[n+]4C3)[C@H](C)[C@H]12 (stereo not given in full)
inactive: [1] 0.0935 | [2] 0.0362 | [3] 0.108 | [4] 0.0849 | [5] 0.0657 | [6] 0.0643 | [7] 0.107 | [8] 0.0482 | [9] 0.0477 | [10] 0.0712 | [11] 0.131 | [12] 0.0731

Cc1nc(-c2ccc(OCC(C)C)c(C#N)c2)sc1C(=O)O
inactive: [1] 0.0284 | [2] 0.0416 | [3] 0.0934 | [4] 0.0712 | [5] 0.041 | [6] 0.0602 | [7] 0.0702 | [8] -0.0146 | [9] 0.0469 | [10] 0.0999 | [11] 0.0851 | [12] 0.0135

CC(=O)[C@H]1CC[C@H]2[C@@H]3CC=C4C[C@@H](O)CC[C@]4(C)[C@H]3CC[C@]12C
inactive: [13] 0.241 | [14] 0.273 | [15] 0.258 | [16] 0.296

CN(C)c1ccc(C(=C2C=CC(=[N+](C)C)C=C2)c2ccc(N(C)C)cc2)cc1
active: [7] -0.295 | [8] -0.547 | [9] -2.54 | [10] -1.19 | [11] -4.26 | [12] -1.87
inactive: [1] 0.0956 | [2] -0.0594 | [13] 0.105 | [14] 0.00922 | [3] 0.0542 | [4] 0.0588 | [5] 0.098 | [6] 0.0226 | [15] 0.0691 | [16] 0.106

Oc1cc2c(cc1O)[C@@H]1c3ccc(O)c(O)c3OC[C@]1(O)C2
inactive: [13] -0.00452 | [14] 0.0855 | [15] 0.0593 | [16] 0.105

O=c1c(-c2cc(O)c(O)c(O)c2)coc2cc(O)c(O)c(O)c12
inactive: [13] 0.0125 | [14] 0.0303 | [15] 0.111 | [16] 0.0681

C/C=C(/C)C(=O)O[C@H]1[C@H](OC(C)=O)[C@]2(CO)[C@H](O)C[C@]3(C)C(=CC[C@@H]4[C@@]5(C)CC[C@H](O[C@@H]6O[C@H](C(=O)O)[C@@H](O[C@@H]7O[C@H](CO)[C@@H](O)[C@H](O)[C@H]7O)[C@H](O)[C@H]6O[C@@H]6O[C@H](CO)[C@@H](O)[C@H](O)[C@H]6O)[C@](C)(CO)[C@@H]5CC[C@]43C)[C@@H]2CC1(C)C.C/C=C(\C)C(=O)O[C@H]1[C@H](OC(C)=O)[C@@]2(CO)C(CC1(C)C)C1=CCC3[C@@]4(C)CC[C@H](O[C@@H]5O[C@H](C(=O)O)[C@@H](O[C@@H]6O[C@H](CO)[C@@H](O)[C@H](O)[C@H]6O)[C@H](O)[C@H]5O[C@@H]5O[C@H](CO)[C@@H](O)[C@H](O)[C@H]5O)[C@](C)(CO)C4CC[C@@]3(C)[C@]1(C)C[C@H]2O
inactive: [13] 0.0112 | [14] -0.0408 | [15] 0.0934 | [16] 0.0403

CC(C)CCC[C@@H](C)C1CC[C@H]2[C@@H]3CCC4=CC(=O)C=C[C@]4(C)[C@H]3CC[C@]12C (stereo not given in full)
inactive: [13] 0.107 | [14] 0.0599 | [15] 0.105 | [16] 0.0638

c1ccc2nc(C3=NCCN3)ccc2c1
inactive: [17] 0.245 | [18] 0.115 | [19] 0.149 | [20] 0.0346

CC(C)(C)c1ccc(C(O)CCCN2CCC(C(O)(c3ccccc3)c3ccccc3)CC2)cc1 (stereo not given)
inactive: [13] 0.12 | [14] 0.0182 | [17] 0.13 | [18] 0.0514 | [15] 0.155 | [16] 0.0701 | [19] 0.115 | [20] 0.121

CC(COc1ccccc1)NC(C)C(O)c1ccc(O)cc1 (stereo not given)
inactive: [13] 0.163 | [14] 0.0434 | [15] 0.178 | [16] 0.141
